{"source": "paper PMC4409396", "note": "These are yes or no findings as the source states them, for the method shown. Some binding calls cover weakened binding; strength is not graded here. For part of these data: Sequences can lack the tags named with a protein.", "data": [{"target": "T1, FloT (Bacillus subtilis) (UniProt O32076)", "T1 sequence": "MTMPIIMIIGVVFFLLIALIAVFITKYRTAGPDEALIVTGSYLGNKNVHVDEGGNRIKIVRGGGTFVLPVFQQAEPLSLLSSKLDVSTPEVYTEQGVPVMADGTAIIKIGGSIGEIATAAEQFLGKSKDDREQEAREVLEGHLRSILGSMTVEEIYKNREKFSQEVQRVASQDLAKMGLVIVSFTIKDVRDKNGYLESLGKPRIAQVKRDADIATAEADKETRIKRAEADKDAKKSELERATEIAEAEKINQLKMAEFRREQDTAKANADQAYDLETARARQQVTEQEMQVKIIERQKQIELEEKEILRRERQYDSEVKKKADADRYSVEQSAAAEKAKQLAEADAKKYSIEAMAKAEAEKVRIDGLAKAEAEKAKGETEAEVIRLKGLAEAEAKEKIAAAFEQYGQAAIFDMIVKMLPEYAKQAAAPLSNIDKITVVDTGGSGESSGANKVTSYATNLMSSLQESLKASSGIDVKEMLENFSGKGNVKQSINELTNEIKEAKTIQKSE", "assay": "two-hybrid; bacterial two-hybrid (adenylate cyclase T25/T18 fusions from pKNT25 and pUT18) in E. coli BTH101; lacZ reporter, X-Gal plates 48 h at 30°C and Miller units; positive signal defined as ≥ 700 Miller Units", "values": [{"molecule": "FloT (protein, UniProt O32076 1-509) MTMPIIMIIGVVFFLLIALIAVFITKYRTAGPDEALIVTGSYLGNKNVHVDEGGNRIKIVRGGGTFVLPVFQQAEPLSLLSSKLDVSTPEVYTEQGVPVMADGTAIIKIGGSIGEIATAAEQFLGKSKDDREQEAREVLEGHLRSILGSMTVEEIYKNREKFSQEVQRVASQDLAKMGLVIVSFTIKDVRDKNGYLESLGKPRIAQVKRDADIATAEADKETRIKRAEADKDAKKSELERATEIAEAEKINQLKMAEFRREQDTAKANADQAYDLETARARQQVTEQEMQVKIIERQKQIELEEKEILRRERQYDSEVKKKADADRYSVEQSAAAEKAKQLAEADAKKYSIEAMAKAEAEKVRIDGLAKAEAEKAKGETEAEVIRLKGLAEAEAKEKIAAAFEQYGQAAIFDMIVKMLPEYAKQAAAPLSNIDKITVVDTGGSGESSGANKVTSYATNLMSSLQESLKASSGIDVKEMLENFSGKGNVKQSINELTNEIKEAKTIQKSE", "binding": "binds"}]}, {"target": "T2, His6-tagged FloT (Bacillus subtilis) (UniProt O32076)", "T2 sequence": "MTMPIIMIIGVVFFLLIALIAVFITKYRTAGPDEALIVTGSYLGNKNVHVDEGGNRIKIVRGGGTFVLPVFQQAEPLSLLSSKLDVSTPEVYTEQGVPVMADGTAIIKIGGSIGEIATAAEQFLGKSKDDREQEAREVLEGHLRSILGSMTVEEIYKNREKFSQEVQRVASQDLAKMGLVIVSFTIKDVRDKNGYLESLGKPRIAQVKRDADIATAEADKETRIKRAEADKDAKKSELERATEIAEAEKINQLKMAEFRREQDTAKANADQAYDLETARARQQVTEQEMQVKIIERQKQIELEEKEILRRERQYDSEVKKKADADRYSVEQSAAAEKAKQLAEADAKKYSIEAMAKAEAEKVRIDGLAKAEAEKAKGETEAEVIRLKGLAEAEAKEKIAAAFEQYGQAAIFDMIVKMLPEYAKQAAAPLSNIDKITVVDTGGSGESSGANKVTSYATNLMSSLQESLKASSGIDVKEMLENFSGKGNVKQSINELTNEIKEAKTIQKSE", "assay": "native gel or EMSA; blue-native PAGE (4-20% gradient) of the membrane fraction, solubilised with 1% DDM, of B. subtilis overexpressing His6-FloA or His6-FloT; bands that held the flotillin found by anti-His immunoblot, cut and analysed by LC/MS", "values": [{"molecule": "SecA (from UniProt P28366 1-841)", "binding": "binds"}, {"molecule": "FtsH (from UniProt P37476 1-637)", "binding": "binds"}, {"molecule": "OppABCDF oligopeptide permease (from UniProt P24141 21-545; P24138 1-311; P24139 1-305; P24136 1-358; P24137 1-305) (complex)", "binding": "binds"}, {"molecule": "YclQ (protein, UniProt P94421 20-317) CGNQSTSSKGSDTKKEQITVKHQLDKNGTKVPKNPKKVVVFDFGSLDTLDKLGLDDIVAGLPKQVLPKYLSKFKDDKYADVGSLKEPDFDKVAELDPDLIIISARQSESYKEFSKIAPTIYLGVDTAKYMESFKSDAETIGKIFDKEDKVKDELANIDHSIADVKKTAEKLNKNGLVIMANDGKISAFGPKSRYGLIHDVFGVAPADQNIKASTHGQSVSYEYISKTNPDYLFVIDRGTAIGETSSTKQVVENDYVKNVNAVKNGHVIYLDSATWYLSGGGLESMTQMIKEVKDGLEK", "binding": "binds"}, {"molecule": "YhfQ (protein, UniProt C0SP94 20-323) CSSSSGNQNSKEHKVAVTHDLGKTNVPEHPKRVVVLELGFIDTLLDLGITPVGVADDNKAKQLINKDVLKKIDGYTSVGTRSQPSMEKIASLKPDLIIADTTRHKKVYDQLKKIAPTIALNNLNADYQDTIDASLTIAKAVGKEKEMEKKLTAHEEKLSETKQKISANSQSVLLIGNTNDTIMARDENFFTSRLLTQVGYRYAISTSGNSDSSNGGDSVNMKMTLEQLLKTDPDVIILMTGKTDDLDADGKRPIEKNVLWKKLKAVKNGHVYHVDRAVWSLRRSVDGANAILDELQKEMPAAKK", "binding": "binds"}, {"molecule": "YfiY (protein, UniProt O31567 21-325) CNSSESSSNSEVSSSKTRTVKHAMGTSDNIPANPKRIVVLTNEGTEALLALGIKPVGAVKSWKGDPWYDYLKDDMKGVKNVGLETEPNVEAIAELKPDLIIGNKVRQEKIYDQLNAIAPTVFAESLAGNWKDNLTLYANAVNKADKGKEVIADFDKRVSDLKNKLGDQTNKTVSVVRFLSGESRIYYTDSFPGIILDQLGFKRPEKQVELFKKQKDQFTFSTDSKESIPDMDADVLFYFTYKADNAKENEKWANQWTSSSLWKNLKAVKSGNAHEVDDVVWTTAGGIKAANYLLDDIETYFLKTK", "binding": "binds"}, {"molecule": "SecDF (protein, UniProt O32047 1-737) MKKGRLIAFFLFVLLIGTGLGYFTKPAANNITLGLDLQGGFEVLYDVQPVKKGDKITKDVLVSTVEALNRRANVLGVSEPNIQIEGNNRIRVQLAGVTNQNRAREILATEAQLSFRDANDKELLNGADLVENGAKQTYDSTTNEPIVTIKLKDADKFGEVTKKVMKMAPNNQLVIWLDYDKGDSFKKEVQKEHPKFVSAPNVSQELNTTDVKIEGHFTAQEAKDLASILNAGALPVKLTEKYSTSVGAQFGQQALHDTVFAGIVGIAIIFLFMLFYYRLPGLIAVITLSVYIYITLQIFDWMNAVLTLPGIAALILGVGMAVDANIITYERIKEELKLGKSVRSAFRSGNRRSFATIFDANITTIIAAVVLFIFGTSSVKGFATMLILSILTSFITAVFLSRFLLALLVESRWLDRKKGWFGVNKKHIMDIQDTDENTEPHTPFQKWDFTSKRKYFFIFSSAVTVAGIIILLVFRLNLGIDFASGARIEVQSDHKLTTEQVEKDFESLGMDPDTVVLSGEKSNIGVARFVGVPDKETIAKVKTYFKDKYGSDPNVSTVSPTVGKELARNALYAVAIASIGIIIYVSIRFEYKMAIAAIASLLYDAFFIVTFFSITRLEVDVTFIAAILTIIGYSINDTIVTFDRVREHMKKRKPKTFADLNHIVNLSLQQTFTRSINTVLTVVIVVVTLLIFGASSITNFSIALLVGLLTGVYSSLYIAAQIWLAWKGRELKKDSAQ", "binding": "binds"}, {"molecule": "YacD (protein, UniProt P37566 33-297) SSSGESIATIGGKSVTREEWLKEMEDQYGKSTLEDMINVRVVEQLAKKNKLKISKSEVDREFLLIKAVNNSFYEDEHTTEKEWKDQIRYNILLEDLLTRDIDISNKELESFYNKNKELYQFDDSYRIRHIVVKDEEEAREVLKELKGGSSFEAVAAERSTDRYTSPYGGDLGFVTEASDNIPSAYIEEAKTLKEDEWSQEPIKVSNGYAIIQLKEKLKARTFSFDEVKDQIRRQIAMDQLGDKATVKTLWKEADVSWFYGEKSTK", "binding": "binds"}, {"molecule": "ResE (endogenous) (protein, UniProt P35164 1-589) MKFWKSVVGKLWFTILSLVLIVLFILTVLLLEFIENYHVEEAENDLTQLANKVAVILENHEDQALARSITWELADNLTSIAIIQDEKNHWYSPNDKNRLSSITVEQIQHDKDLNKALKDHKKVSKRTGLSDTDTDNERLIVGVPYEKDGKKGMVFLSQSLLAVKDTTKHTTRYIFLAAGIAIVLTTFFAFFLSSRVTYPLRKMREGAQDLAKGKFDTKIPILTQDEIGELATAFNQMGRQLNFHINALNQEKEQLSNILSSMADGVITINIDGTILVTNPPAERFLQAWYYEQNMNIKEGDNLPPEAKELFQNAVSTEKEQMIEMTLQGRSWVLLMSPLYAESHVRGAVAVLRDMTEERRLDKLREDFIANVSHELRTPISMLQGYSEAIVDDIASSEEDRKEIAQIIYDESLRMGRLVNDLLDLARMESGHTGLHYEKINVNEFLEKIIRKFSGVAKEKNIALDHDISLTEEEFMFDEDKMEQVFTNLIDNALRHTSAGGSVSISVHSVKDGLKIDIKDSGSGIPEEDLPFIFERFYKADKARTRGRAGTGLGLAIVKNIVEAHNGSITVHSRIDKGTTFSFYIPTKR", "binding": "binds"}]}, {"target": "T3, His6-tagged FloA (Bacillus subtilis) (UniProt P54466)", "T3 sequence": "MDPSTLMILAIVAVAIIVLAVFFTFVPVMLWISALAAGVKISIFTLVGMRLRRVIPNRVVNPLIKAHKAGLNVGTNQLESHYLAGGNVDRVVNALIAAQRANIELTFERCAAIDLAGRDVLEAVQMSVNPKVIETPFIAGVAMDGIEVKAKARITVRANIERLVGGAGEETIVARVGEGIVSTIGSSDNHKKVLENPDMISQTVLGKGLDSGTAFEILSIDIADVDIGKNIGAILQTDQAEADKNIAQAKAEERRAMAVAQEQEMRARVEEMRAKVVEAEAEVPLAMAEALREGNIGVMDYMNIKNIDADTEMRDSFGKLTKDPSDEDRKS", "assay": "native gel or EMSA; blue-native PAGE (4-20% gradient) of the membrane fraction, solubilised with 1% DDM, of B. subtilis overexpressing His6-FloA or His6-FloT; bands that held the flotillin found by anti-His immunoblot, cut and analysed by LC/MS", "values": [{"molecule": "PhoR (endogenous) (from UniProt P23545 1-579)", "binding": "binds"}, {"molecule": "FtsH (from UniProt P37476 1-637)", "binding": "binds"}, {"molecule": "OppABCDF oligopeptide permease (from UniProt P24141 21-545; P24138 1-311; P24139 1-305; P24136 1-358; P24137 1-305) (complex)", "binding": "binds"}, {"molecule": "PBP1A/1B (protein, UniProt P39793 1-914) MSDQFNSREARRKANSKSSPSPKKGKKRKKGGLFKKTLFTLLILFVLGVVGGAVTFAVMVSDAPSLDESKLKTPYSSTIYDKNGKEIAEVGAEKRTYVSIDEIPDVVKEAFIATEDARFYEHHGIDPVRIGGALVANFKDGFGAEGGSTITQQVVKNSLLSHQKTLKRKVQEVWLSIQLERNYSKDEILEMYLNRIYFSPRAYGIGKAAEEFFGVTDLSKLTVEQAATLAGMPQSPTAYNPVKNPDKAEKRRNIVLSLMKKQGFISDSQYNKAKKVAVKDEGVVSQKEYEKASTNKYSAFVEEVMKEIDEKSDVDPSADGLKIYTTLDTKAQDKLDELMDGDTVGFTEGMQGGVTLLDTKNGEVRAIGAGRNQPVGGFNYATQTKAQPGSTIKPILDYGPVIENKKWSTYEQIDDSAYTYSNGKPIRDWDRKYLGPISMRYALAQSRNIPALKAFQAVGKDTAVDFANGLGLGLTKDNVTEAYSIGGFGGNDGVSPLTMAGAYSAFGNNGTYNEPHFVKSIEFNDGTKLDLTPKSKSAMSDYTAFMITDMLKTAVKTGTGQLAQVPGVEVAGKTGTTNFDDNEVKRYNIASGGARDSWFVGYTPQYTAAVWTGMGENEAGKKSLSAEEQKVAKRIFAQLIADVDDGSGSFEKPDSVVEATVEKGSNPAKLAGPNTPSDKKLTEYFVKGTAPSTVSKTYEKEEKEETAKLSGLNVKYDKDNQSLTLSWNYDGDATFAVKQSVDGGSYSEIQNSSAKEAVISGVQPGSVYKFEVTAVSDDGKSTASTSYEVPKAEDDEDKKDQQQTDDEKQDDEKTQDDTQTDDSQKDDGQTDQDQTDDSTNDQDKKQDNTNTNPSDNNNQDQSNDNDNDNSNNQDTSDGDSNSGKNDSTGSDTNKNKTDTSNKTQTNSSSIEKTN", "binding": "binds"}, {"molecule": "TagU (protein, UniProt Q02115 1-306) MRNERRKKKKTLLLTILTIIGLLVLGTGGYAYYLWHKAASTVASIHESIDKSKKRDKEVSINKKDPFSVLIMGVDERDGDKGRADTLIYMTVNPKTNTTDMVSIPRDTYTKIIGKGTMDKINHSYAFGGTQMTVDTVENFLDVPVDYFVKVNMESFRDVVDTLGGITVNSTFAFSYDGYSFGKGEITLNGKEALAYTRMRKEDPRGDFGRQDRQRQVIQGIINKGANISSITKFGDMFKVVENNVKTNLTFDNMWDIQSDYKGARKHIKQHELKGTGTKINGIYYYQADESALSDITKELKESLEK", "binding": "binds"}]}]}
